# Assay results from a collection of fitness landscapes (doi:10.1016/j.celrep.2020.107928).
# Over roughly 81,000 sequences, “one-hybrid fitness for binding parS DNA” has its median near -0.17; the highest 2% begin near 0.51. This is one part of the list.
# B1: Caulobacter ParB omega fusion; a variant is named by its letters at X, in order, B8GW30 (parent)
# chain: MESVVVGEPGMSEGRRGLGRGLSALLGEVDAAPAQAPGEQLGGSREAPIEILQRNPDQPRRTFREEDLEDLSNSIREKGVLQPILVRPSPDTAGEYQIVAGERAWRAAQRAGLKTVPIMVRELDDLAVLEIGIIENVQRADLNVLEEALSYKVLMEKFERTQENIAQTIGKSXSHVANXMRLLXLPDEVQSYLVSGELTAXHARAIAAAADPVALAKQIIEGGLSVRETEALARKAPNLSAGKSKGGRPPRVKDTDTQALESDLSSVLGLDVSIDHRGSTGTLTITYATLEQLDDLCNRLTRGI
# Variants of: B1
# Assay: one-hybrid fitness for binding parS DNA (scaled: cognate 1, non-cognate 0); higher = stronger binding
# Settings: with parS DNA site
# In short: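 Values were rescaled so that cognate is 1 and non-cognate is 0. Each is a fitness, the log change in a variant's read ratio to wild type from Illumina reads of plasmids before and after selection, with three replicate libraries pooled and variants under 10 reads dropped. Selection of the Caulobacter ParB libraries, four specificity codons randomised, used E. coli USO with a HIS3 reporter, site 19 bp from the promoter, on M9-minus-histidine with 0.1 mM IPTG and 5 mM 3-AT for 48 hours at 37°C.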
row,Variant,one-hybrid fitness for binding parS DNA
1,QVGF,≤ 0.2
2,ELVN,≤ 0.2
3,DLFC,≤ 0.2
4,DNRS,≤ 0.2
5,WVHT,0.294
6,WCTL,≤ 0.2
7,LEEM,≤ 0.2
8,PMGC,≤ 0.2
9,SLIR,≤ 0.2
10,QELG,≤ 0.2
11,PDPT,≤ 0.2
12,QIAD,≤ 0.2
13,EIYW,≤ 0.2
14,DTGL,≤ 0.2
15,GYPC,≤ 0.2
16,KHDT,≤ 0.2
17,GQVG,≤ 0.2
18,AGNL,≤ 0.2
19,NRLT,≤ 0.2
20,LLQL,≤ 0.2
21,RTNT,0.86
22,LANR,≤ 0.2
23,PITK,≤ 0.2
24,QCDV,≤ 0.2
25,NFEL,≤ 0.2
26,KYMR,≤ 0.2

row,Variant,one-hybrid fitness for binding parS DNA
1,NAHA,≤ 0.2
2,IKYG,≤ 0.2
3,TSLY,≤ 0.2
4,LCRR,≤ 0.2
5,RFNM,0.344
6,RTNQ,≤ 0.2
7,QIKW,≤ 0.2
8,RPNE,≤ 0.2
9,NNCW,≤ 0.2
10,QSMS,≤ 0.2
11,VHET,≤ 0.2
12,AVSY,≤ 0.2
13,YNCR,≤ 0.2
14,AANT,≤ 0.2
15,GWCS,≤ 0.2
16,NQAE,≤ 0.2
17,GYCD,≤ 0.2
18,RLWF,0.255
19,SANL,≤ 0.2
20,QHSG,≤ 0.2
21,RCAA,0.596
22,STRC,≤ 0.2
23,YWVG,≤ 0.2
24,RPYR,≤ 0.2
25,HPIL,≤ 0.2
26,TLEA,≤ 0.2

row,Variant,one-hybrid fitness for binding parS DNA
1,PVIC,≤ 0.2
2,SISF,≤ 0.2
3,VVFV,≤ 0.2
4,THMR,≤ 0.2
5,NDMC,≤ 0.2
6,PKKW,≤ 0.2
7,DPFS,≤ 0.2
8,DLQR,≤ 0.2
9,WVAS,≤ 0.2
10,SSKT,≤ 0.2
11,VVRG,≤ 0.2
12,PKRL,≤ 0.2
13,ECTE,≤ 0.2
14,RSFD,≤ 0.2
15,PTNA,≤ 0.2
16,RLMT,0.955
17,STFT,≤ 0.2
18,TVVE,≤ 0.2
19,TYMA,≤ 0.2
20,VDTT,≤ 0.2
21,RHIG,0.705
22,ERMG,≤ 0.2
23,RSEN,0.333
24,YDQS,≤ 0.2
